Reference: the supplement of paper PMC8728848
The other results are listed elsewhere or left out.

Experiments:
Assay in all cases: glycan array binding signal (z-score within array); higher = stronger binding
Details in all cases: glycan notation: IUPAC condensed, linker removed
Neu5Ac(a2-8)Neu5Ac = target: Neu5Ac(a2-8)Neu5Ac
Outline: (§1)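 Negative Z-scores can be read as non-binding. The Z-score is calculated within each array and then averaged across arrays of one protein sequence at different concentrations or buffers and across linkers. Arrays, 3228 in all, were curated from the Consortium for Functional Glycomics database and kept only where the protein sequence was available.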

[1] = target: Neu5Ac(a2-8)Neu5Ac(a2-3)Gal(b1-3)GalNAc(b1-4)[Neu5Ac(a2-3)]Gal(b1-4)Glc
Outline: as §1

[2] = target: Neu5Ac(a2-8)Neu5Ac(a2-3)Gal(b1-3)GalNAc(b1-4)[Neu5Ac(a2-8)Neu5Ac(a2-3)]Gal(b1-4)Glc
Outline: as §1

[3] = target: Neu5Ac(a2-8)Neu5Ac(a2-3)Gal(b1-4)Glc
Outline: as §1

[4] = target: Neu5Ac(a2-8)Neu5Ac(a2-3)Gal(b1-4)GlcNAc
Outline: as §1

[5] = target: Neu5Ac(a2-8)Neu5Ac(a2-3)[Gal(b1-3)GalNAc(b1-4)]Gal(b1-4)Glc
Outline: as §1

[6] = target: Neu5Ac(a2-8)Neu5Ac(a2-3)[GalNAc(b1-4)]Gal(b1-4)Glc
Outline: as §1

[7] = target: Neu5Ac(a2-8)Neu5Ac(a2-8)Neu5Ac
Outline: as §1

[8] = target: Neu5Ac(a2-8)Neu5Ac(a2-8)Neu5Ac(a2-3)Gal(b1-4)Glc
Outline: as §1

[9] = target: Neu5Ac(a2-8)Neu5Ac(a2-8)Neu5Ac(a2-3)[Gal(b1-3)GalNAc(b1-4)]Gal(b1-4)Glc
Outline: as §1

[10] = target: Neu5Ac(a2-8)Neu5Ac(a2-8)Neu5Ac(a2-3)[GalNAc(b1-4)]Gal(b1-4)Glc
Outline: as §1

[11] = target: Neu5Ac(a2-8)Neu5Ac(a2-8)Neu5Ac(a2-8)Neu5Ac(a2-3)[GalNAc(b1-4)]Gal(b1-4)Glc
Outline: as §1

[12] = target: Neu5Ac(a2-8)Neu5Gc(a2-3)Gal(b1-4)GlcNAc
Outline: as §1

[13] = target: Neu5Ac(b2-6)Gal(b1-4)GlcNAc
Outline: as §1

Neu5Ac(b2-6)GalNAc = target: Neu5Ac(b2-6)GalNAc
Outline: as §1

[14] = target: Neu5Ac9Ac(a2-3)Gal(b1-3)GlcNAc
Outline: as §1

[15] = target: Neu5Ac9Ac(a2-3)Gal(b1-4)GlcNAc
Outline: as §1

[16] = target: Neu5Ac9Ac(a2-6)Gal(b1-4)GlcNAc
Outline: as §1

[17] = target: Neu5Gc(a2-3)Gal(b1-3)GlcNAc
Outline: as §1

[18] = target: Neu5Gc(a2-3)Gal(b1-3)[Fuc(a1-4)]GlcNAc
Outline: as §1

Neu5Gc(a2-3)Gal(b1-4)Glc = target: Neu5Gc(a2-3)Gal(b1-4)Glc
Outline: as §1

[19] = target: Neu5Gc(a2-3)Gal(b1-4)GlcNAc
Outline: as §1

[20] = target: Neu5Gc(a2-3)Gal(b1-4)GlcNAc(b1-3)Gal(b1-4)GlcNAc(b1-2)Man(a1-3)[Neu5Gc(a2-3)Gal(b1-4)GlcNAc(b1-3)Gal(b1-4)GlcNAc(b1-2)Man(a1-6)]Man(b1-4)GlcNAc(b1-4)GlcNAc
Outline: as §1

[21] = target: Neu5Gc(a2-3)Gal(b1-4)[Fuc(a1-3)]GlcNAc
Outline: as §1

[22] = target: Neu5Gc(a2-6)Gal(b1-4)GlcNAc
Outline: as §1

Neu5Gc(a2-6)GalNAc = target: Neu5Gc(a2-6)GalNAc
Outline: as §1

[23] = target: Neu5Gc(a2-8)Neu5Ac(a2-3)Gal(b1-4)GlcNAc
Outline: as §1

[24] = target: Neu5Gc(a2-8)Neu5Gc(a2-3)Gal(b1-4)GlcNAc
Outline: as §1

[25] = target: Neu5Gc(a2-8)Neu5Gc(a2-3)Gal(b1-4)GlcNAc(b1-3)Gal(b1-4)GlcNAc
Outline: as §1

[26] = target: Neu5Gc(a2-8)Neu5Gc(a2-6)Gal(b1-4)GlcNAc
Outline: as §1

[27] = target: Neu5Gc(b2-6)Gal(b1-4)GlcNAc
Outline: as §1

B1: LecB LY19 (Pseudomonas aeruginosa) (protein)
chain: MATQGVFTLPANTQFGVTAFANSAGTQTVNVQVNNETVATFTGQSTNNGIIGSKVLNSGGGGKVQILVSVNGRSSDLVSAQVILANELNFALVGSEDSTDNDYNDAVVVINWPLG
Neu5Ac(a2-8)Neu5Ac
  glycan array binding signal (z-score): -0.55
[1]
  glycan array binding signal (z-score): -0.554
[2]
  glycan array binding signal (z-score): -0.551
[3]
  glycan array binding signal (z-score): -0.547
[4]
  glycan array binding signal (z-score): -0.557
[5]
  glycan array binding signal (z-score): -0.551
[6]
  glycan array binding signal (z-score): -0.537
[7]
  glycan array binding signal (z-score): -0.555
[8]
  glycan array binding signal (z-score): -0.551
[9]
  glycan array binding signal (z-score): -0.549
[10]
  glycan array binding signal (z-score): -0.546
[11]
  glycan array binding signal (z-score): -0.551
[12]
  glycan array binding signal (z-score): -0.555
[13]
  glycan array binding signal (z-score): -0.528
Neu5Ac(b2-6)GalNAc
  glycan array binding signal (z-score): -0.563
[14]
  glycan array binding signal (z-score): -0.555
[15]
  glycan array binding signal (z-score): -0.553
[16]
  glycan array binding signal (z-score): -0.526
[17]
  glycan array binding signal (z-score): -0.509
[18]
  glycan array binding signal (z-score): -0.353
Neu5Gc(a2-3)Gal(b1-4)Glc
  glycan array binding signal (z-score): -0.511
[19]
  glycan array binding signal (z-score): -0.537
[20]
  glycan array binding signal (z-score): -0.506
[21]
  glycan array binding signal (z-score): 0.661
[22]
  glycan array binding signal (z-score): -0.551
Neu5Gc(a2-6)GalNAc
  glycan array binding signal (z-score): -0.552
[23]
  glycan array binding signal (z-score): -0.554
[24]
  glycan array binding signal (z-score): -0.553
[25]
  glycan array binding signal (z-score): -0.556
[26]
  glycan array binding signal (z-score): -0.541
[27]
  glycan array binding signal (z-score): -0.556
